Test results reported in PubChem BioAssay AID927 (National Center for Advancing Translational Sciences (NCATS), 2007).
In all, about 60,000 compounds went through this assay and about 65 (0.1%) were called active. Inconclusive results, whose numbers are uncertain, are shown with a selection of clear calls. Calls come from the whole dose curve; as a rule, active = well fitted inhibition curve with a large enough effect; inconclusive = small, poorly fitted or top-dose-only effect; inactive = no such curve, though single readings can be large or run the other way. Potencies beside an inconclusive call are fits to weak or partial responses and may not hold up.

Target: Ubiquitin carboxyl-terminal hydrolase 2 (Homo sapiens) (UniProt O75604)
Experiment: qHTS Assay for Inhibitors of Ubiquitin-specific Protease USP2a; note: nearly all actives have a fitted effect of over 60% in size
Settings: USP2a enzymatic assay; Potency: qHTS inhibition; series mostly up to 38.3 µM
How it was run: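 20 nM USP2 core + cpd, 30 min RT; add 20 nM Ub-PLA2/20 uM NBD C6-HPC; read Ex460/Em535 at 0 h and 2.5 h. Normalized to NEM; qHTS curve fit/classification.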
Potency is the fitted concentration of half-maximal effect; tags give direction and shape of the fitted curve.

UniProt O75604, sequence (O75604 whole entry, looked up): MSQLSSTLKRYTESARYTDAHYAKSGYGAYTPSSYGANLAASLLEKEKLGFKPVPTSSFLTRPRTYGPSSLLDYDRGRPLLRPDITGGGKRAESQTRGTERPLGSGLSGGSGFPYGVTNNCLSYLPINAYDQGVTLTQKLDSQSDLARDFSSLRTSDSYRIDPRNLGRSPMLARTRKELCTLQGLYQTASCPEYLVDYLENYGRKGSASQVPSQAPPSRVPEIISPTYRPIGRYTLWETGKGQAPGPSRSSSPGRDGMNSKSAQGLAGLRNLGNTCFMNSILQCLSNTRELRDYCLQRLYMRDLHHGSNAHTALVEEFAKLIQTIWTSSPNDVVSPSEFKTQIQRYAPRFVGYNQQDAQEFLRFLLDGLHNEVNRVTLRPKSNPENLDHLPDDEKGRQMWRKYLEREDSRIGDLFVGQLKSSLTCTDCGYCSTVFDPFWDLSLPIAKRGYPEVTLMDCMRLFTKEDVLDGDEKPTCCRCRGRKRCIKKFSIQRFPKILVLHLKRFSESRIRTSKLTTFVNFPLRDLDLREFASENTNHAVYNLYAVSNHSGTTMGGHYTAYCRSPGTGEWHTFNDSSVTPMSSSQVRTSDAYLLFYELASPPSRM

| Compound | Potency |
| --- | --- |
| CC(=O)N1CCN(c2ccc(Oc3nc(-c4ccccc4)nc4ccccc34)cc2)CC1 | inconclusive: 12.6 µM [inhibitor, single point] |
| COc1ccc(O)c(-c2cc(-c3cccc(Br)c3)n[nH]2)c1 | inconclusive: 25.1 µM [inhibitor, single point] |
| CS(=O)(=O)c1nc(-c2cccs2)cc(C(F)(F)F)n1 | inactive |
| CCCCNc1cc(C(=O)O)cc(S(N)(=O)=O)c1Oc1ccccc1 | inconclusive: 6.31 µM [inhibitor, single point] |
| Cc1ccc(-c2csc(N(CC3CCCO3)C(=O)c3ccco3)n2)cc1 (stereo not given) | inconclusive: 20 µM [inhibitor, single point] |
| COCCn1nnnc1C(c1cc2c(C)cc(C)cc2[nH]c1=O)N1CCCCCC1 (stereo not given) | inconclusive: 3.16 µM [inhibitor, single point] |
| COc1cc2ccccc2cc1C(=O)Nc1ccccc1N1CCN(S(C)(=O)=O)CC1 | inconclusive: 25.1 µM [inhibitor, single point] |
| Cc1ccc(-n2nc(C)c3c2OC(N)=C(C#N)C3c2ccoc2)cc1 (stereo not given) | inconclusive: 3.98 µM [inhibitor, partial curve] |
| Cc1cc(C)nc(N(C#N)CC(=O)c2ccccc2)n1 | inconclusive: 25.1 µM [inhibitor, single point] |
| FC(F)Sc1ccc(Nc2ncnc3nc[nH]c23)cc1 | inactive |
| NC(=NCCCCCCN=C(N)/N=C(\N)Nc1ccc(Cl)cc1)/N=C(\N)Nc1ccc(Cl)cc1 | inconclusive: 25.1 µM [inhibitor, single point] |
| COc1cc(OC)c(-c2nn3c(-c4ccncc4)nnc3s2)cc1OC | inactive |
| C=C(C)COc1ccc(-c2[nH]ncc2Oc2cccc(OC)c2)c(O)c1 | inconclusive: 25.1 µM [inhibitor, single point] |
| CCCn1c2ccccc2c2nc3ccccc3nc21 | inconclusive: 12.6 µM [inhibitor, single point] |
| C=C[C@](C)(O)CCC=C(C)C | inactive |
| c1coc(-c2nc(-c3ccco3)c(-c3ccco3)nc2-c2ccco2)c1 | inconclusive: 10 µM [inhibitor, partial curve] |
| Cc1ccc(S(=O)(=O)NC(CC(=O)N2CCOCC2)c2ccco2)cc1 (stereo not given) | inconclusive: 25.1 µM [inhibitor, single point] |
| CC(=O)N1CCC2(CC1)CCN(c1ccccc1)CC2 | inconclusive: 10 µM [inhibitor, single point] |
| COCC(=O)N1CCC2(CC1)CN(c1ccccn1)C2 | inactive |
| Cc1nn(-c2ccccc2)c2c1C(c1c(C)[nH]c(C#N)c1C)C(C#N)=C(N)O2 (stereo not given) | inactive |
| CN(c1ccccc1)c1nc(N2CCCC2)nc(-n2ccnc2)n1 | inconclusive: 25.1 µM [inhibitor, single point] |
| CCOc1ccc(/C(=N\O)C(C)NO)cc1 (stereo not given) | inconclusive: 10 µM [inhibitor, partial curve] |
| COc1ccc(-c2csc(NCc3ccco3)n2)cc1C | inactive |
| c1cc2[nH]snc2c2nc(C3CC3)nc12 | inactive |
| CCOCCCn1c(SCC(=O)Nc2ccc(C(N)=O)cc2)nc2ccccc2c1=O | inconclusive: 25.1 µM [inhibitor, single point] |

| Compound | Potency |
| --- | --- |
| CN(C)c1ccc(C2C=C(c3ccc(Cl)cc3OC(F)F)Nc3ncnn32)cc1 (stereo not given) | inconclusive: 3.98 µM [inhibitor, full curve] |
| CCOC(=O)C1=C(C)NC(=O)NC1C1CC=CCC1 (stereo not given) | inactive |
| O=C(Nc1nccs1)c1c(O)c2cccc3c2n(c1=O)CCC3 | inactive |
| c1ccc(CCc2ccccc2-c2nc(-c3ccccn3)no2)cc1 | inconclusive: 25.1 µM [inhibitor, single point] |
| N#CCCn1c(=O)c(-c2ccccc2)nc2cnc(Nc3ccccc3)nc21 | inconclusive: 12.6 µM [inhibitor, single point] |
| CCOc1ccccc1CNC(=O)CCN1C(=O)COc2ccccc21 | inactive |
| COc1ccc(OC)c2c(C)cc(N3CCN(C(=O)c4ccc(F)cc4)CC3)nc12 | inactive |
| COc1ccc(F)cc1CN1CCN(C(=O)CCC(=O)Nc2nnc(C(C)C)s2)CC1 | inactive |
| O=C(Nc1ccc(F)cc1)N(Cc1ccco1)Cc1cc2cc3c(cc2[nH]c1=O)OCO3 | inactive |
| CC1(C)CC(=O)C2=C(C1)OC1=C(C(=O)CC(C)(C)C1)C2c1ccc(O)cc1O | inconclusive: 1.26 µM [inhibitor, partial curve] |
| O=C(O)Cn1c(P(=O)(O)c2ccccc2)nc2ccccc21 | inactive |
| Cc1occc1-c1nnc(SCC(=O)c2cc3ccccc3oc2=O)o1 | inconclusive: 25.1 µM [inhibitor, single point] |
| NC(=O)c1ccc(OCC(F)(F)C(F)(F)C(F)(F)C(F)(F)C(F)(F)C(F)F)cc1 | inconclusive: 2 µM [inhibitor, full curve] |
| Cc1cccc(NC(=O)CCN2CCOCC2)c1 | inactive |
| COc1cccc(Nc2ncc3nc(-c4cccs4)c(=O)n(CCC#N)c3n2)c1 | inactive |
| COCCNc1cc(-c2ccccc2C)ncn1 | inconclusive: 12.6 µM [inhibitor, single point] |
| O=c1c2ccccc2nc2n1CCC2 | inconclusive: 3.98 µM [inhibitor, partial curve] |
| CCOC(=O)C1=C(C)N=c2s/c(=C\c3cccn3C)c(=O)n2C1c1cccc(OC)c1OC (stereo not given) | inactive |
| OC(C#Cc1ccccn1)c1cccs1 (stereo not given) | inactive |
| CCCCC(c1nnnn1CC1CCCO1)N1CCN(c2cc(Cl)ccc2C)CC1 (stereo not given) | inconclusive: 12.6 µM [inhibitor, single point] |
| Cn1c(SC/C=C/c2ccccc2)nnc1-c1cccs1 | inactive |
| NS(=O)(=O)c1cc(C(=O)O)cc(N2CCCC2)c1Oc1ccccc1 | inconclusive: 7.94 µM [inhibitor, partial curve] |
| CC1=CC(C)(C)Nc2ccc(C)cc21 | inactive |
| O=C(NC1CCCC1)c1cnn2c(C(F)(F)F)cc(-c3ccco3)nc12 | inactive |
| COc1ccc2[nH]c(=O)c(CN(C(=O)c3ccccn3)c3ccccc3)cc2c1 | inconclusive: 3.98 µM [inhibitor, single point] |

| Compound | Potency |
| --- | --- |
| N#Cc1nc(-c2ccc(OCc3ccccc3)cc2)oc1NCc1ccco1 | inconclusive: 10 µM [inhibitor, single point] |
| CCOC(=O)c1c(NC(=O)CN2CCOCC2)sc2c1CCCC2 | inactive |
| CCCCn1c(SCC(N)=O)nnc1-c1ccco1 | inconclusive: 25.1 µM [inhibitor, single point] |
| COc1ccc(C(=O)N2CCC[C@@]3(CCN(Cc4cc(C(F)(F)F)cc(C(F)(F)F)c4)C3)C2)cc1 | inconclusive: 15.8 µM [inhibitor, single point] |
| COc1ccccc1-c1nc(C#N)c(N2CCc3ccccc3C2)o1 | inconclusive: 12.6 µM [inhibitor, partial curve] |
| Clc1ccc2[nH]c3c(c2c1)CCc1cn[nH]c1-3 | inconclusive: 12.6 µM [inhibitor, single point] |
| CCOC(=O)c1c(C2CC2)csc1NC(=O)CSCc1c(C)noc1C | inconclusive: 20 µM [inhibitor, single point] |
| N#Cc1c(-c2ccccc2)cc(-c2ccco2)c(C#N)c1N | inconclusive: 25.1 µM [inhibitor, single point] |
| COc1ccc(NC(=O)CNS(=O)(=O)c2ccc3nc(C)sc3c2)c(OC)c1 | inactive |
| COC(=O)CSc1nc(N2CCCCC2)c2c(c1C#N)CCCC2 | active: 12.6 µM |
| N#Cc1ccc(C(c2nnnn2CCc2ccccc2)N2CCCCCC2)cc1 (stereo not given) | inconclusive: 12.6 µM [inhibitor, partial curve] |
| COc1ccccc1NC(=O)CSC1=NC(=O)C(NC(C)=O)C(=O)N1 (stereo not given) | inconclusive: 10 µM [inhibitor, partial curve] |
| C=CCn1c(=O)c(C(=O)NCCNCC)c(O)c2ccccc21 | active: 12.6 µM |
| COc1cc(OC)c(C2C(C#N)=C(N)OC3=C2C(=O)CC(C)(C)C3)cc1OC (stereo not given) | inconclusive: 3.98 µM [inhibitor, single point] |
| CC(C)n1nnnc1SCC(=O)NCc1ccco1 | inconclusive: 2 µM [inhibitor, partial curve] |
| COc1cccc(-c2nn3c(-c4cccc(C)c4)nnc3s2)c1 | inconclusive: 25.1 µM [inhibitor, single point] |
| COc1ccc2c3c(cccc13)NN=C2C | inconclusive: 25.1 µM [inhibitor, single point] |
| COc1ccc2c(=O)c3c(=O)n(Cc4ccco4)c(C(C)C)nc3oc2c1 | inconclusive: 25.1 µM [inhibitor, single point] |
| COc1ccc(CN/C=C2\CCCCC2=O)cc1 | inconclusive: 1 µM [inhibitor, single point] |
| COc1cc(C2=NOC(C(=O)N3CCCCCC3)C2)cc(OC)c1OC (stereo not given) | inconclusive: 3.98 µM [inhibitor, single point] |
| CC(=O)N(CCCN(C)C)CCC(C)CCC=C(C)C (stereo not given) | inconclusive: 25.1 µM [inhibitor, single point] |
| NC(Cc1cc(I)c(Oc2cc(I)c(O)c(I)c2)c(I)c1)C(=O)O (stereo not given) | inconclusive: 25.1 µM [inhibitor, single point] |
| COc1ccc2[nH]c3nc(SCc4nnc(-c5ccccc5)o4)nnc3c2c1 | inactive |
| CC(=O)Nc1ccc(S(=O)(=O)Nc2cccc(N(C)S(C)(=O)=O)c2)cc1 | inactive |
| C=CCCCCCCCCCCCc1ccco1 | inconclusive: 12.6 µM [inhibitor, partial curve] |
